# The other results are listed elsewhere or left out.
# B1: Gal 4 (Homo sapiens), Q8K419 (protein)
# chain: MAYVPAPGYQPTYNPTLPYKRPIPGGLSVGMSVYIQGMAKENMRRFHVNFAVGQDDGADVAFHFNPRFDGWDKVVFNTMQSGQWGKEEKKKSMPFQKGKHFELVFMVMPEHYKVVVNGNSFYEYGHRLPVQMVTHLQVDGDLELQSINFLGGQPAAAPYPGAMTIPAYPAGSPGYNPPQMNTLPVMTGPPVFNPRVPYVGALQGGLTVRRTIIIKGYVLPTARNFVINFKVGSSGDIALHLNPRIGDSVVRNSFMNGSWGAEERKVAYNPFGPGQFFDLSIRCGMDRFKVFANGQHLFDFSHRFQAFQMVDTLEINGDITLSYVQI
# Legend:
# Test in all cases: glycan array binding signal (z-score within array); higher = stronger binding
# Details in all cases: glycan notation: IUPAC condensed, linker removed
# Gal(b1-3)GlcNAc = target: Gal(b1-3)GlcNAc
# Summary of the method: (§1)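 Negative Z-scores can be read as non-binding. The Z-score is calculated within each array and then averaged across arrays of one protein sequence at different concentrations or buffers and across linkers. Arrays, 3228 in all, were curated from the Consortium for Functional Glycomics database and kept only where the protein sequence was available.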
# [1] = target: Gal(b1-3)GlcNAc(a1-3)Gal(b1-4)GlcNAc
# Summary of the method: as §1
# [2] = target: Gal(b1-3)GlcNAc(a1-6)Gal(b1-4)GlcNAc
# Summary of the method: as §1
# [3] = target: Gal(b1-3)GlcNAc(b1-2)Man(a1-3)[Gal(b1-3)GlcNAc(b1-2)Man(a1-6)]Man(b1-4)GlcNAc(b1-4)GlcNAc
# Summary of the method: as §1
# [4] = target: Gal(b1-3)GlcNAc(b1-2)Man(a1-3)[Gal(b1-3)GlcNAc(b1-2)Man(a1-6)]Man(b1-4)GlcNAc(b1-4)[Fuc(a1-6)]GlcNAc
# Summary of the method: as §1
# [5] = target: Gal(b1-3)GlcNAc(b1-2)Man(a1-3)[GlcNAc(b1-4)][Gal(b1-3)GlcNAc(b1-2)Man(a1-6)]Man(b1-4)GlcNAc(b1-4)GlcNAc
# Summary of the method: as §1
# [6] = target: Gal(b1-3)GlcNAc(b1-2)[Gal(b1-3)GlcNAc(b1-6)]Man(a1-6)[Gal(b1-3)GlcNAc(b1-2)Man(a1-3)]Man(b1-4)GlcNAc(b1-4)GlcNAc
# Summary of the method: as §1
# [7] = target: Gal(b1-3)GlcNAc(b1-3)Gal(b1-3)GlcNAc
# Summary of the method: as §1
# [8] = target: Gal(b1-3)GlcNAc(b1-3)Gal(b1-4)Glc
# Summary of the method: as §1
# [9] = target: Gal(b1-3)GlcNAc(b1-3)Gal(b1-4)GlcNAc
# Summary of the method: as §1
# [10] = target: Gal(b1-3)GlcNAc(b1-3)Gal(b1-4)GlcNAc(b1-6)[Gal(b1-3)GlcNAc(b1-3)]Gal(b1-4)Glc
# Summary of the method: as §1
# [11] = target: Gal(b1-3)GlcNAc(b1-3)Gal(b1-4)[Fuc(a1-3)]GlcNAc(b1-6)[Gal(b1-3)GlcNAc(b1-3)]Gal(b1-4)Glc
# Summary of the method: as §1
# [12] = target: Gal(b1-3)GlcNAc(b1-3)GalNAc
# Summary of the method: as §1
# [13] = target: Gal(b1-3)GlcNAc(b1-6)Gal(b1-4)GlcNAc
# Summary of the method: as §1
# [14] = target: Gal(b1-3)GlcNAc(b1-6)GalNAc
# Summary of the method: as §1
# Gal(b1-3)GlcNAc6S = target: Gal(b1-3)GlcNAc6S
# Summary of the method: as §1
# [15] = target: Gal(b1-3)[Fuc(a1-4)]GlcNAc
# Summary of the method: as §1
# [16] = target: Gal(b1-3)[Fuc(a1-4)]GlcNAc(b1-2)Man(a1-3)[Gal(b1-3)[Fuc(a1-4)]GlcNAc(b1-2)Man(a1-6)]Man(b1-4)GlcNAc(b1-4)GlcNAc
# Summary of the method: as §1
# [17] = target: Gal(b1-3)[Fuc(a1-4)]GlcNAc(b1-2)Man(a1-3)[Gal(b1-3)[Fuc(a1-4)]GlcNAc(b1-2)Man(a1-6)]Man(b1-4)GlcNAc(b1-4)[Fuc(a1-6)]GlcNAc
# Summary of the method: as §1
# [18] = target: Gal(b1-3)[Fuc(a1-4)]GlcNAc(b1-3)Gal(b1-3)[Fuc(a1-4)]GlcNAc
# Summary of the method: as §1
# [19] = target: Gal(b1-3)[Fuc(a1-4)]GlcNAc(b1-3)Gal(b1-4)GlcNAc
# Summary of the method: as §1
# [20] = target: Gal(b1-3)[Fuc(a1-4)]GlcNAc(b1-3)Gal(b1-4)[Fuc(a1-3)]GlcNAc
# Summary of the method: as §1
# [21] = target: Gal(b1-3)[Fuc(a1-4)]GlcNAc(b1-6)GalNAc
# Summary of the method: as §1
# [22] = target: Gal(b1-3)[GlcNAc(b1-6)]GalNAc
# Summary of the method: as §1
# [23] = target: Gal(b1-3)[Neu5Ac(a2-6)]GalNAc
# Summary of the method: as §1
# [24] = target: Gal(b1-3)[Neu5Ac(a2-6)]GlcNAc(b1-6)Gal(b1-4)Glc
# Summary of the method: as §1
# [25] = target: Gal(b1-3)[Neu5Ac(b2-6)]GalNAc
# Summary of the method: as §1
# Gal(b1-4)Gal = target: Gal(b1-4)Gal
# Summary of the method: as §1
# [26] = target: Gal(b1-4)GalNAc(a1-3)[Fuc(a1-2)]Gal(b1-4)GlcNAc
# Summary of the method: as §1
# [27] = target: Gal(b1-4)GalNAc(b1-3)[Fuc(a1-2)]Gal(b1-4)GlcNAc
# Summary of the method: as §1
# Gal(b1-4)Glc = target: Gal(b1-4)Glc
# Summary of the method: as §1
# Gal(b1-4)Glc6S = target: Gal(b1-4)Glc6S
# Summary of the method: as §1
# Gal(b1-4)GlcNAc = target: Gal(b1-4)GlcNAc
# Summary of the method: as §1
# [28] = target: Gal(b1-4)GlcNAc(a1-6)Gal(b1-4)GlcNAc
# Summary of the method: as §1
# Gal(b1-4)GlcNAc(b1-2)Man = target: Gal(b1-4)GlcNAc(b1-2)Man
# Summary of the method: as §1
# [29] = target: Gal(b1-4)GlcNAc(b1-2)Man(a1-3)Man(b1-4)GlcNAc(b1-4)GlcNAc
# Summary of the method: as §1
# [30] = target: Gal(b1-4)GlcNAc(b1-2)Man(a1-3)[Gal(b1-4)GlcNAc(b1-2)Man(a1-6)]Man(b1-4)GlcNAc(b1-4)GlcNAc
# Summary of the method: as §1
# [31] = target: Gal(b1-4)GlcNAc(b1-2)Man(a1-3)[Gal(b1-4)GlcNAc(b1-2)Man(a1-6)]Man(b1-4)GlcNAc(b1-4)[Fuc(a1-6)]GlcNAc
# Summary of the method: as §1
# [32] = target: Gal(b1-4)GlcNAc(b1-2)Man(a1-3)[Gal(b1-4)GlcNAc(b1-2)][GlcNAc(b1-4)]Man(b1-4)GlcNAc(b1-4)GlcNAc
# Summary of the method: as §1
# [33] = target: Gal(b1-4)GlcNAc(b1-2)Man(a1-3)[GlcNAc(b1-2)Man(a1-6)]Man(b1-4)GlcNAc(b1-4)GlcNAc
# Summary of the method: as §1
# [34] = target: Gal(b1-4)GlcNAc(b1-2)Man(a1-3)[Man(a1-6)]Man(b1-4)GlcNAc(b1-4)GlcNAc
# Summary of the method: as §1
# [35] = target: Gal(b1-4)GlcNAc(b1-2)Man(a1-6)Man(b1-4)GlcNAc(b1-4)GlcNAc
# Summary of the method: as §1
# [36] = target: Gal(b1-4)GlcNAc(b1-2)Man(a1-6)[GlcNAc(b1-2)Man(a1-3)]Man(b1-4)GlcNAc(b1-4)GlcNAc
# Summary of the method: as §1
# [37] = target: Gal(b1-4)GlcNAc(b1-2)Man(a1-6)[Man(a1-3)]Man(b1-4)GlcNAc(b1-4)GlcNAc
# Summary of the method: as §1
# [38] = target: Gal(b1-4)GlcNAc(b1-2)[Gal(b1-4)GlcNAc(b1-4)]Man(a1-3)[Gal(b1-4)GlcNAc(b1-2)Man(a1-6)]Man(b1-4)GlcNAc(b1-4)GlcNAc
# Summary of the method: as §1
binder,measurement,setting,value
B1,glycan array binding signal (z-score),Gal(b1-3)GlcNAc,-0.094
same,glycan array binding signal (z-score),[1],0.021
same,glycan array binding signal (z-score),[2],-0.159
same,glycan array binding signal (z-score),[3],-0.133
same,glycan array binding signal (z-score),[4],-0.21
same,glycan array binding signal (z-score),[5],-0.159
same,glycan array binding signal (z-score),[6],-0.107
same,glycan array binding signal (z-score),[7],0.868
same,glycan array binding signal (z-score),[8],0.818
same,glycan array binding signal (z-score),[9],-0.016
same,glycan array binding signal (z-score),[10],-0.033
same,glycan array binding signal (z-score),[11],-0.017
same,glycan array binding signal (z-score),[12],-0.185
same,glycan array binding signal (z-score),[13],-0.093
same,glycan array binding signal (z-score),[14],-0.168
same,glycan array binding signal (z-score),Gal(b1-3)GlcNAc6S,0.692
same,glycan array binding signal (z-score),[15],-0.193
same,glycan array binding signal (z-score),[16],0.009
same,glycan array binding signal (z-score),[17],-0.174
same,glycan array binding signal (z-score),[18],-0.198
same,glycan array binding signal (z-score),[19],-0.185
same,glycan array binding signal (z-score),[20],-0.193
same,glycan array binding signal (z-score),[21],-0.193
same,glycan array binding signal (z-score),[22],-0.174
same,glycan array binding signal (z-score),[23],-0.197
same,glycan array binding signal (z-score),[24],-0.177
same,glycan array binding signal (z-score),[25],-0.206
same,glycan array binding signal (z-score),Gal(b1-4)Gal,-0.201
same,glycan array binding signal (z-score),[26],2.3
same,glycan array binding signal (z-score),[27],-0.196
same,glycan array binding signal (z-score),Gal(b1-4)Glc,-0.126
same,glycan array binding signal (z-score),Gal(b1-4)Glc6S,0.106
same,glycan array binding signal (z-score),Gal(b1-4)GlcNAc,-0.172
same,glycan array binding signal (z-score),[28],-0.188
same,glycan array binding signal (z-score),Gal(b1-4)GlcNAc(b1-2)Man,-0.212
same,glycan array binding signal (z-score),[29],-0.2
same,glycan array binding signal (z-score),[30],-0.203
same,glycan array binding signal (z-score),[31],-0.194
same,glycan array binding signal (z-score),[32],-0.201
same,glycan array binding signal (z-score),[33],-0.204
same,glycan array binding signal (z-score),[34],-0.185
same,glycan array binding signal (z-score),[35],-0.201
same,glycan array binding signal (z-score),[36],-0.197
same,glycan array binding signal (z-score),[37],-0.204
same,glycan array binding signal (z-score),[38],-0.188
